Assay results reported in the supplement of paper PMC12217912.
Some of the results follow. The full chains were built here from the parent and the listed change. Values near 0.05 are background.

B1: TEV protease; numbered along this chain (parent)
chain: MGESLFKGPRDYNPISSSICHLTNESDGHTTSLYGIGFGPFIITNKHLFRRNNGTLVVQSLHGVFKVKDTTTLQQHLVDGRDMIIIRMPKDFPPFPQKLKFREPQREERICLVTTNFQTKSMSSMVSDTSCTFPSGDGIFWKHWIQTKDGQCGSPLVSTRDGFIVGIHSASNFTNTNNYFTSVPKNFMELLTNQEAQQWVSGWRLNADSVLWGGHKVFMVKPEEPFQPVKEATQL

Variants of: B1
Assay: raw area under fraction-flipped curve 0-4 h after induction (AUC4h, not background-subtracted), DNA-recorder readout of cleavage of the substrate (dimensionless); higher = more cleavage of the substrate by the protease variant
Details: temperature: 34 °C; time window: 0-4 h after rhamnose induction
Experimental: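 In vivo DNA recorder in E. coli TOP10(DE3) ΔrhaA at 34 °C. Each TEVp single-site mutant (parent TEVp 0) is paired with a single-site variant of the 7-mer TEVs (canonical ENLYFQ|S). The substrate sits between flexible linkers in a Bxb1-sfGFP-TEVs-SsrA fusion, so cleavage stabilises Bxb1 and speeds flipping of a recombination array, read by NGS. The value is the raw area under the fraction-flipped curve over 0-4 h after rhamnose induction (AUC4h), with ≥20 reads per time point. It is not background-subtracted; inactive controls average about 0.047.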
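Further: Bxb1 expression induced with 0.2% (w/v) L-rhamnose at OD600 near 0.5, cultures sampled hourly, flipped fraction per protease–substrate barcode pair counted by paired-end Illumina sequencing.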

| Variant | area with substrate DNLYFQS | area with substrate FNLYFQS | area with substrate GNLYFQS | area with substrate HNLYFQS | area with substrate INLYFQS | area with substrate KNLYFQS | area with substrate LNLYFQS | area with substrate MNLYFQS | area with substrate NNLYFQS | area with substrate PNLYFQS | area with substrate RNLYFQS | area with substrate TNLYFQS | area with substrate VNLYFQS | area with substrate WNLYFQS | area with substrate YNLYFQS | area with substrate SNLYFQS | area with substrate QNLYFQS | area with substrate CNLYFQS |
| --- | --- | --- | --- | --- | --- | --- | --- | --- | --- | --- | --- | --- | --- | --- | --- | --- | --- | --- |
| S32D | 0.077 | 0.0557 | 0.0612 | 0.0568 | 0.0589 | 0.0772 | 0.063 | 0.0613 | 0.046 | 0.0551 | 0.0576 | 0.0432 | 0.0488 | 0.0488 | 0.0618 |  |  |  |
| T72R | 0.066 | 0.0732 |  | 0.0678 |  | 0.0893 | 0.0497 |  | 0.0638 | 0.0909 |  | 0.104 |  |  | 0.0599 |  |  |  |
| T72C | 0.106 |  | 0.0623 | 0.0489 | 0.0496 | 0.0752 |  | 0.0562 | 0.0606 | 0.0481 |  | 0.0744 |  | 0.0674 |  |  |  |  |
| K120Y | 0.0723 |  | 0.0681 | 0.0635 | 0.0451 | 0.0646 |  | 0.0566 |  |  |  | 0.0661 |  | 0.061 | 0.057 | 0.0381 |  |  |
| K120G | 0.0668 | 0.0791 | 0.076 | 0.0696 |  | 0.0285 |  |  |  | 0.05 |  | 0.0681 |  | 0.0689 |  |  | 0.0524 |  |
| C152D | 0.0398 | 0.0854 |  | 0.0578 |  |  |  | 0.0301 |  | 0.0574 |  | 0.0572 |  | 0.0541 | 0.0588 | 0.0447 |  |  |
| C152F | 0.0551 | 0.0391 |  | 0.062 | 0.0582 | 0.0668 | 0.0665 | 0.0603 | 0.0613 |  |  | 0.065 |  | 0.0623 | 0.0626 | 0.0565 |  | 0.0566 |
| L56I | 0.0597 |  |  |  | 0.0689 | 0.0474 | 0.0661 | 0.0599 |  | 0.0613 | 0.0538 | 0.0606 | 0.0744 | 0.0498 | 0.021 | 0.0707 |  |  |
| R160N | 0.0874 |  |  |  |  | 0.0767 | 0.0763 | 0.069 | 0.0708 | 0.0693 |  | 0.0904 |  | 0.0631 |  | 0.0682 |  | 0.0717 |
| P184N | 0.0449 | 0.0548 |  | 0.0562 | 0.065 | 0.0715 | 0.0507 | 0.0816 | 0.0538 | 0.0647 |  | 0.0531 | 0.0649 | 0.06 |  | 0.0421 |  | 0.0611 |
| P184W | 0.0584 | 0.0513 | 0.0625 | 0.0558 | 0.0433 | 0.0646 | 0.0617 |  | 0.0643 | 0.0572 |  | 0.053 |  | 0.0486 | 0.0577 | 0.0289 |  |  |
| P184I | 0.0773 | 0.0597 | 0.061 | 0.104 | 0.0571 | 0.0694 | 0.0707 | 0.0401 | 0.0541 | 0.0781 |  | 0.0575 | 0.0549 | 0.0651 | 0.053 | 0.0632 | 0.0584 | 0.0785 |
| P184L | 0.0633 | 0.055 | 0.0735 | 0.0489 |  |  | 0.0656 | 0.0641 |  | 0.0517 | 0.0535 |  | 0.0049 | 0.0416 | 0.06 |  |  | 0.0669 |
| D208Q |  |  |  | 0.063 | 0.0549 | 0.0624 | 0.0588 |  |  | 0.051 |  |  | 0.0529 | 0.0422 | 0.0466 |  |  | 0.0623 |
| D208K |  | 0.0702 |  | 0.0591 | 0.061 | 0.0568 |  |  |  |  |  |  |  | 0.0719 |  |  |  | 0.072 |
| L48N | 0.0544 | 0.0652 | 0.0598 | 0.05 | 0.0573 | 0.0494 | 0.0579 | 0.0635 |  | 0.0553 |  | 0.0379 | 0.0685 | 0.0656 | 0.0605 | 0.055 |  |  |
| L48K | 0.0563 | 0.0515 |  | 0.0594 | 0.0504 | 0.0591 | 0.0417 | 0.0495 | 0.0461 | 0.0633 |  | 0.0547 |  | 0.0572 | 0.0524 | 0.0663 | 0.0668 |  |
| E224K | 0.081 | 0.0576 | 0.0474 | 0.0678 | 0.0521 | 0.0901 | 0.0408 | 0.0568 | 0.053 | 0.0643 | 0.0652 |  |  | 0.0613 | 0.0739 | 0.0789 |  | 0.0579 |
| E224Y |  | 0.0606 |  | 0.0568 | 0.0495 | 0.0127 | 0.0641 | 0.0789 |  |  |  | 0.0791 |  | 0.0464 |  | 0.0659 |  | 0.0574 |
| E224C | 0.0755 |  |  | 0.071 | 0.0591 | 0.0768 | 0.0667 | 0.0791 |  | 0.0681 |  | 0.0597 | 0.0762 | 0.0642 | 0.0585 | 0.0601 |  | 0.0724 |
| E224W | 0.0742 | 0.0674 | 0.0604 | 0.0609 | 0.0616 | 0.0624 | 0.0763 | 0.0545 | 0.0623 | 0.0767 | 0.0652 | 0.0726 | 0.0723 | 0.0597 |  | 0.0573 | 0.0692 |  |
| E224R |  |  |  | 0.0656 | 0.075 |  |  |  |  | 0.0437 |  | 0.0667 |  |  | 0.0601 | 0.0726 |  | 0.0441 |
| E224N | 0.0824 | 0.0682 | 0.0489 | 0.0696 |  | 0.063 | 0.0633 |  | 0.0706 | 0.0692 |  | 0.0623 | 0.0634 | 0.0713 |  |  |  | 0.0694 |
| E224H | 0.0581 |  | 0.0646 | 0.0621 |  | 0.0497 |  |  |  |  |  | 0.0639 |  | 0.0515 | 0.0722 | 0.0809 |  |  |
| V64L | 0.0647 |  | 0.0509 | 0.0903 | 0.0626 |  | 0.0677 | 0.0694 |  | 0.0326 |  | 0.0384 |  |  | 0.0572 |  |  |  |
| V64W | 0.0645 |  |  |  |  | 0.0574 | 0.0563 |  | 0.0522 | 0.0686 |  | 0.0774 | 0.0834 | 0.0614 |  |  |  |  |
| S16C | 0.062 |  | 0.0683 | 0.0636 | 0.0804 | 0.0593 | 0.0596 |  | 0.0602 | 0.0497 |  | 0.0668 |  | 0.0636 | 0.0696 |  |  |  |
| T192Q | 0.0801 | 0.0693 | 0.0634 | 0.0654 | 0.0686 | 0.0602 | 0.0573 | 0.0635 | 0.0519 | 0.0671 | 0.0706 | 0.0672 | 0.0793 | 0.0627 | 0.0588 | 0.0825 |  | 0.0614 |
| T192H |  | 0.0713 | 0.066 | 0.0609 |  | 0.0706 | 0.0727 |  |  |  |  | 0.0739 | 0.0479 | 0.0517 | 0.045 |  |  | 0.0744 |
| T192G | 0.0743 |  |  |  |  |  | 0.0534 |  |  | 0.0701 |  | 0.0057 | 0.0684 |  | 0.065 | 0.0649 |  | 0.058 |
